Test results: PubChem BioAssay AID1745853 (National Center for Advancing Translational Sciences (NCATS), 2022)
This is one part of the list. Shown are side measurements of this screen, not its main read-out; they come without a call.

Legend:
Assay in all cases: Primary Screen for Target Class Profiling of Small Molecule Inhibitors of Methyltransferases
[1] = target: Glycine N-methyltransferase (Homo sapiens) (UniProt Q14749); conditions: purified enzyme, MTase-Glo SAH luminescence; measured here: GNMT inhibition; at 40 µM; stronger effect = lower value
Method in brief: (§1)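 Each enzyme was assayed with SAM and its substrate. SAH formation detected by MTase-Glo luminescence; single-point 40 uM screen[…].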

[2] = target: Guanidinoacetate N-methyltransferase (Homo sapiens) (UniProt Q14353); conditions: purified enzyme, MTase-Glo SAH luminescence; measured here: GAMT inhibition; at 40 µM; stronger effect = lower value
Method in brief: as §1

[3] = target: Histamine N-methyltransferase (Homo sapiens) (UniProt P50135); conditions: purified enzyme, MTase-Glo SAH luminescence; measured here: HNMT inhibition; at 40 µM; stronger effect = lower value
Method in brief: as §1

[4] = target: Nicotinamide N-methyltransferase (Homo sapiens) (UniProt P40261); conditions: purified enzyme, MTase-Glo SAH luminescence; measured here: NNMT inhibition; at 40 µM; stronger effect = lower value
Method in brief: as §1

[5] = target: Phenylethanolamine N-methyltransferase (Homo sapiens) (UniProt P11086); conditions: purified enzyme, MTase-Glo SAH luminescence; measured here: PNMT inhibition; at 40 µM; stronger effect = lower value
Method in brief: as §1
% is set by controls: 0 for no effect and ±100 for the full control effect.

SMILES | activity change, negative = inhibition [1] | activity change, negative = inhibition [2] | activity change, negative = inhibition [3] | activity change, negative = inhibition [4] | activity change, negative = inhibition [5]
CS(=O)(=O)N1C[C@@H](COc2ccccc2)[C@H](C(N)=O)C1 | -2.03% | 1.13% | 1.63% | 0.351% | -0.734%
COc1ccc(-n2c(CCN)n[nH]c2=O)c(C)c1 | -6.63% | -9.2% | -3.15% | -12.6% | -6.89%
c1ccc2c(Nc3nnc(-c4ccncc4)s3)cccc2c1 | -27.7% | -14.3% | -1.74% | -28.1% | -11.6%
O=C(c1ccc2c(=O)nc3c(-c4ccc(F)cc4)n[nH]n3c2c1)N1CCN(c2ccccn2)CC1 | -6.1% | 0.881% | -6.12% | -3.25% | -3.89%
CC(=O)Nc1cccc(C(=O)N2CCC3(CC2)N=C(c2ccc(C)cc2)NO3)c1 | -3.11% | 1.41% | -2.81% | -2.48% | -5.44%
CCCN(CCN1CCN(c2ccccc2OC)CC1)C1CCc2ncsc2C1 (stereo not drawn) | -1.57% | 0.535% | 2.59% | -16.6% | 2.29%
COc1cc(O)c2c(c1Cl)CC(C)OC2=O (stereo not drawn) | -22.2% | -4.66% | 5.71% | -15.3% | -9.8%
O=C(c1ccc(C(F)(F)F)cc1)N1CCCC(C(=O)N2CCC(c3nc4ccncc4[nH]3)CC2)C1 (stereo not drawn) | -7.47% | -12.6% | -14% | -53.8% | -12.4%
COCCCNC(=O)Cn1ccc2cc(S(=O)(=O)N3CCCCC3)ccc21 | 1.85% | 0.867% | -0.283% | -1.12% | -2.62%
COc1ccc(CN2C(=O)c3ccc(-c4ccccc4)n3CC2(C)C(=O)NC2CCCC2)cc1 (stereo not drawn) | -7.26% | -3.22% | -5.11% | -9.38% | -2.25%
CCOC(=O)CC(NC(=O)N1CCn2c(C)ccc2C1CC)c1ccccc1 (stereo not drawn) | -1.56% | 2.58% | 1.47% | -5.85% | -3.69%
CSCCC(NC(=O)c1ccccc1NC(=O)c1ccc(C)cc1)C(=O)O (stereo not drawn) | -3.9% | 3.86% | -4.11% | 4.51% | -3.36%
O=C(c1ccccc1F)N1CCC(Cc2nc(-c3cnccn3)no2)CC1 | -4.91% | -2.61% | 0.283% | -16.8% | -2.11%
CN(Cc1cnc2nc(N)nc(N)c2n1)c1ccc(C(=O)N[C@@H](CCC(=O)O)C(=O)O)cc1 | -4.96% | 13.9% | 9.7% | -2.35% | 0.784%
COc1cc(F)ccc1-c1nc(-c2c(C)noc2C)cc2cc(C)oc12 | -7.86% | -8.03% | -6.86% | -33.2% | 1.64%
CCCN1C(=O)c2c(C(=O)NCc3ccc(F)cc3)ncn2CC1(C)C(=O)NCc1ccc(C)cc1 (stereo not drawn) | 3.36% | 0.448% | 11% | 2.1% | 11.5%
Nc1nc(-n2cc(C(=O)O)c(=O)c3cc(F)c(N4CC(O)C4)c(Cl)c32)c(F)cc1F | 3.43% | 8.84% | 5.24% | -8.94% | 1.48%
CC(=O)NC(C(=O)OC1CCC(C)(C)C2CC=C3C(=O)OCC3C12C)C(C)C (stereo not drawn) | 1.13% | 2.92% | -1.47% | -6.6% | -0.433%
CN1C(=O)c2cc(C(=O)NCc3ccc4c(c3)OCO4)nn2CC1(C)C(=O)NCc1ccc(F)cc1 (stereo not drawn) | 0.457% | 3.61% | -1.18% | -0.586% | -0.466%
COC(=O)C[C@H]1CN(C(=O)OC(C)(C)C)CCN1 | -5.8% | -10.5% | -4.83% | -17.5% | -5.42%

SMILES | activity change, negative = inhibition [1] | activity change, negative = inhibition [2] | activity change, negative = inhibition [3] | activity change, negative = inhibition [4] | activity change, negative = inhibition [5]
COC(=O)c1ncn2c1C(=O)N(c1ccc(F)cc1)C(C)(C(=O)NC1CCCC1)C2 (stereo not drawn) | 1.62% | 0% | -1.65% | 0.848% | -0.341%
CC1CCC(NC(=O)C2(C)Cn3c(cc4occc43)C(=O)N2Cc2ccc(Cl)cc2)CC1 (stereo not drawn) | -2.29% | 17.1% | 4.13% | -10.4% | -6.2%
Cc1cnc(C2CC2)n1C1CCCN(Cc2ccccc2)C1 (stereo not drawn) | -0.142% | 0.149% | -67.1% | -5.5% | -20.4%
CN(CC(=O)NCc1ccc(Cl)cc1)S(=O)(=O)c1ccc2[nH]c3c(c2c1)CCCC3 | -6.7% | 0% | -4.81% | -3.95% | -3.25%
CC(C)Cn1c(=O)c2ccc(C(=O)NC3CCCCC3)cc2n2c(=O)[nH]nc12 | 2.03% | 1.77% | 9.46% | -0.782% | -4.74%
CC(C)NC(=O)c1ccc2c(=O)n(C3CC3)c3nn(CC(=O)Nc4ccccc4Cl)c(=O)n3c2c1 | 1.82% | 3.12% | 3.46% | 1.78% | 2.97%
CC(C)Cc1cc(C(=O)NCC2CCN(c3cnn(C)c(=O)c3)C2)no1 (stereo not drawn) | -5.15% | -7.95% | -3.6% | -17.5% | -10.7%
CCCCN(CC)CCN1C(=O)c2ccc(-c3ccco3)n2CC1(C)C(=O)NC1CCCCC1 (stereo not drawn) | 7.23% | 0% | 8.09% | 9.81% | 4.41%
c1ccc(OCCCn2cc(-c3cncnc3)nn2)cc1 | -6.2% | -6.91% | -4.58% | -9.49% | -10.7%
COc1ccc(S(=O)(=O)N2CCC(n3cnnc3C)CC2)cc1OC | 1.88% | 0% | 11.6% | 8.6% | 6.32%
CCCn1cnc2c(NCc3ccc(C)s3)nc(N[C@H](CC)CO)nc21 |  | 10.2% |  | -14.2% | 3.16%
CCc1cc2c(cc3n2CC(C)(C(=O)NC2CCCCC2)N(Cc2cccs2)C3=O)s1 (stereo not drawn) | -1.44% | 0% | 2.19% | 0.62% | -1.65%
CCC(CC)C(=O)N1CC[C@@H]2COCCN(Cc3cccnc3)[C@@H]2C1 | -5.14% | -6.58% | -2.31% | -7.61% | -7.86%
COc1cccc(C(=O)Cn2nc3n(CCc4ccccc4)c(=O)c4ccccc4n3c2=O)c1 | 1.15% | 4.71% | 1.98% | -1.13% | 1%
CC(C)C[C@H](C(=O)O)c1cc(-c2ccc(C(F)(F)F)cc2)cc(-c2ccc(C(F)(F)F)cc2)c1 | -14.3% | -50.2% | -4.64% | -77.2% | -11.3%
CC(C)c1cc(C(=O)N[C@@H]2COCC[C@@H]2OCc2cscn2)cs1 | -2.98% | -1.75% | -1.26% | -3.57% | -0.021%
Cc1ccc(CN2C(=O)CSc3c(c4ccccc4n3C)C2C(=O)NCCCOC(C)C)cc1 (stereo not drawn) | 5.61% | 1.79% | 8.83% | -2.87% | 4.37%
COCCCNc1nc2c(S(=O)(=O)c3ccccc3)nnn2c2ccc(Cl)cc12 | -2.48% | 2.38% | 8.05% | 8.4% | 1.54%
O=C1CO[C@H]2CN(Cc3ccc(C(F)(F)F)cc3)C[C@H]2N1 | -1.46% | -0.185% | 2% | -1.55% | -1.4%
Cc1cc(C)cc(NC(=O)c2cc3n(n2)CC(C)(C(=O)NC2CCCCC2)N(C)C3=O)c1 (stereo not drawn) | 8.22% | 0% | 6.46% | 8.09% | 0.562%
